B1: OR4K15 (parent)
chain: GUUAACGGUCAUAGGCCAUGGAAACUAGGAGCACCAUUUCGCUGCCAGUGAAGAAAUGAACAAAGAAAAUCUGGGCCAGGCAGGCAUCAAAAGAAAUAGUCUUGCGCUCAACCAGAAAGUCUGUAAUCAUUUUAAGGGUA

The source gives no read counts; variants with many changes may rest on few reads.

In the series the parent is B1. In words: self-cleavage, relative activity (ratio to wild type); higher = more cleavage; in vitro, sequencing; the parent is a self-cleaving ribozyme.
With GUUAACGGUCAUAGGCCUUGGAAACUAGGAGCACCAUUUCGCUGCCAGUGAAGAAAUGAACAAAGGAAAUCUGGGCCAGGCAGGCAUCAAAAGAGAUAGUCUUGCGCUCAACCAGAAAGUCUGUAAUCAUUUUAAGGGUA [A18U A66G A95G], the self-cleavage was determined as 1.4.
Regarding GUUAACGGUCAUAGGCCUUGGAAACUAGGAGCACCAUUUCGCUGCCAGUGAAGAAAUGAACAAAGCAAAUCUGGGCCAGGCAGGCAUCAAAAGAAAUAGUCUUGCGCUCAACCAGAAAGUCUGUAACCAUUUUAAGGGUA [A18U A66C U127C], the self-cleavage came to 1.78.
Then GUUAACGGUCAUAGGCCUUGGAAACUAGGAGCACCAUUUCGCUGCCAGUAAAGAAGUGAACAAAGAAAAUCUGGGCCAGGCAGGCAUCAAAAGAAAUAGUCUUGCGCUCAACCAGAAAGUCCGUAAUCAUCUUAAGGGUA [A18U G50A A56G U122C U131C], with 1.14; and GUUAACGGUCAUAGGCCUUGGAAACUAGGAGCACCAUUUCGCUGCCAGUGAAGAAAUGAACAAAGAAAAUCUGGGCCAGGCAGGCAUCAAAAGAAAUAGUCUUGCGCUCAACCAGAAAGUCUGUACUCAUUUUAAGGGUG [A18U A126C A140G], with 1.12.
GUUAACGGUCAUAGGCCUUGGAAACUAGGAGCACCAUUUCGCUGCCAGUGAAGAAAUGAACAAAGAAAAUCUGGGCCAGGCGGGCAUCAAAAGAAAUAGUCUUGCGCUCAACCAGAAAGUCUGUAAUCUUUUCAAGGGUA [A18U A82G A129U U133C]: the self-cleavage was 0.21.
Then GUUAACGGUCAUAGGCCUUGGAAACUAGGAGCACCAUUUCGCUGCCAGUGAAGAAAUGAACAAAGAAAAUCUGGGCCAGGCAGGCAUCAAAAGAGAUAGUCUCGCGCUCAACCAGAAAGUCUGUAAUCAUUUUAAGGGUA [A18U A95G U103C], with 1.19; and GUUAACGGUCAUAGGCCUUGGAAACUAGGAGCACCAUUUCGCUGCCAGUGAAGAAAUGAACAAAGGAAAUCUGGGCCAGGCAGGCAUCAAAAGGAAUAGUCUUGCGCUCAACCAGAGAGUCUGUAAUCAUUUUAAGGGUA [A18U A66G A94G A117G], with 0.71.
To GUUAACGGUCAUAGGCCUUGGAAACUAGGAGCACCAUUUCGCUGCCAGUGAAGAAAUGAACAAAGAAAAUCUGGGCCUGGCGGGCAUCAAAAGAAAUAGUCUUGCGCUCAACCAGAAAGUCUGUAAUCAUUUUAAGGGUA [A18U A78U A82G] belongs 0.07; to GUUAACGGUCAUAGGCCUUGGAAACUAGGAGCACCAUUUCGCUGCCAGUGAAGAAAUGAACAAAGAAAGUCUGGGCCAGGCAGGCAUCAAAAGAAAUAGUCUUGCGCACAACCAGAAAGUCUGUAAUCAUUUUAAGGGUA [A18U A69G U108A], 0.01; to GUUAACGGUCAUAGGCCUUGGAAACUAGGAGCACCAUUCCGCUGCCAGUGAAGAAGUGAACGAAGAAAAUCUGGGCCAGGCAGGCAUCAAAAGAAAUAGUCUUGCGCUCAACCAGAAAGUCUGUGAUCAUUUUAAGGGUA [A18U U39C A56G A62G A125G], 0.32.
For GUUAACGGUCAUAGGCCUUGGAAACUAGGAGCACCAUUUCGCUGCCAGUGAAGAAAUGAACAAAGAAAAUCUGGGCCAGGCAGGCAUCAAAAGACAUAGUCUUGCGCUCAACCAGAAAGUCUGUAAUCAUUCUAAGGGUA [A18U A95C U132C], the self-cleavage worked out at 0.55.
Then GUUAACGGUCAUAGGCCUUGGAAACUAGGAGCACCAUUUCGCUGCCAGUGAAGAAAUGAACAAAGAAAAUCUGGGCCAGGCAGGCAUCAAAAGAAGUAGUCUUGCGCUCAACCAGAAAGUCUGCAAUCAUUUUAAGGGUA [A18U A96G U124C], with 1.07; and GUUAACGGUCAUAGGCCUUGGAAACUAGGAGCACCAUUUCGCUGCCAGUGAAGAAAUGAACAAAGAAAAUCUGGGCCGGGCAGGCAUCAAAAGAAAUAGUCUUGAGCUCAACCAGAAAGUCUGUAAUCAUUUUAAGGGUA [A18U A78G C105A], with 0.
To GUUAACGGUCAUAGGCCUUGGAAACUAGGAGCACCAUUUCGCUGCCAGUGAAGAAAUGAACAAAGAAAAUCUGGGCCAGGCAGGCAUCAAAAGAAUGAGUCUUGCGCUCAACCAGAAAGUCUGUAAUCAUUUUAAGGGUA [A18U A96U U97G] belongs 1.72; to GUUAACGGUCAUAGGCCUUGGAAACUAGGAGCAACAUUUCGCUGCCAGUGAAGAAAUGAACAAAGGAAAUCUGGGCCAGGCAGGCAUCAAAAGAAAUAGUCUUGCGCUCAACCAGAAAGUCUGUAACCAUUUUAAGGGUA [A18U C34A A66G U127C], 1.45; to GUUAACGGUCAUAGGCCUCGGAAACUAGGAGCACCAUUACGCUGCCAGUGAAGAAAUGAACAAAGAAAAUCUGGGCCAGGCAGGCAUCAAAAGAAAUAGUCUUGCGCUCAACCAGAAAGUCUGUAAUCAUUUUAAGGGUA [A18U U19C U39A], 1.66.
As to GUUAACGGUCAUAGGCCUUGGAAACUAGGAGCACCAUUUCGCUGCCAGUGAAGAAAUGAACAAAGAAAAUCUGGGCCAGGCAGGCAUCAAAAGAAAUAGUCUUGCGCUCAACCAGGAAGUCUAUAAUCAUUUUAAGGGUA [A18U A116G G123A], the self-cleavage came to 0.57.
For the variant GUUAACGGUCAUAGGCCUUGGAAACUAGGAGCACCAUUUCGCUGCCAGUGAAGAAACGAACAAAGAAAAUCUGGGCCAGGCAGGCAUCAAAGGAAAUAGUCUUGCGCUCAACCAGAAAGUCUGUAAUCAUUUUAAGGGUU [A18U U57C A92G A140U], the self-cleavage came out at 0.93.
In the case of GUUAACGGUCAUAGGCCUUGGAAACUAGGAGCACCACUUCGCUGCCUGUGAAGAAAUGAACAAAGGAAAUCUGGGCCAGGCAGGCAUCAAAAGAAAUAGUCUUGCGCUCAACCAGAAAGUCUGUAAUCAUUUUAAGGGUA [A18U U37C A47U A66G], the self-cleavage came to 0.84.
Then GUUAACGGUCAUAGGCCUCGGAAACCAGGAGCACCGUUUCGCUGCCAGUGAAGAAGUGAACAAAGGAAAUCUGGGCCAGGCAGGCAUCAAAAGAAAUAGUCUUGCGCUCAACCAGAAAGUCUGUAAUCAUUUUAAGGGUA [A18U U19C U26C A36G A56G A66G], with 1.07.

These data come from the RNAGym collection of RNA variant scans (doi:10.7554/elife.90254).
